Among the data in the supplement of paper PMC10369915 are enrichment score values, retold here.

The labels stand for the following.
B1: TP53_Y327_Q331H (peptide)
chain: PLDGEYFTLHI
B2: TP53_Y327_L323M (peptide)
chain: PMDGEYFTLQI
B3: TRPC6_Y896_E897K (peptide)
chain: ISSLRYKLLEE
B4: TP53_Y327_P322L (peptide)
chain: LLDGEYFTLQI
B5: TPI1_Y105 (peptide)
chain: AAQNCYKVTNG
B6: TPR_Y965 (peptide)
chain: SNVEQYQAMVT
B7: TP53_Y327_D324Y_YF (peptide)
chain: PLFGEYFTLQI
B8: TRIM39_Y439_G436R (peptide)
chain: WNRDKYAATTT
B9: TP53_Y234_Y234N_YF (peptide)
chain: CTTIHNNFMCN
B10: TP63_Y171 (peptide)
chain: PSNTDYPGPHS
B11: TPO_Y55 (peptide)
chain: VDTAMYATMQR
B12: TP63_Y171_D170E (peptide)
chain: PSNTEYPGPHS
B13: TPP1_Y459 (peptide)
chain: ALSDGYWVVSN
B14: TP53_Y327_L323R (peptide)
chain: PRDGEYFTLQI
B15: TP53_Y234_Y236H (peptide)
chain: CTTIHYNHMCN
B16: TRIP6_Y275_Q278H (peptide)
chain: PPSGEYFGHCG
B17: TRAPPC1_Y133 (peptide)
chain: SRLDSYVRSLP
B18: TPM3_Y163_R168H (peptide)
chain: EADRKYEEVAH
B19: TP53_Y327_D324Y (peptide)
chain: PLYGEYFTLQI

This is one part of the list. No stated cut-off is given here; in the data, active = 3.2 or more and inactive = the rest. Only a few entries rise above the background.
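Further: displayed peptides selected on beads carrying the immobilized SH2 domain, with library peptides lacking any tyrosine serving as negative controls.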

The target in one experiment is SHP2 C-SH2 domain E139D. Briefly: enrichment score (SH2-bound / input frequency) (ratio); bacterial display of known human phosphotyrosine sites (pTyr-Var adds point mutants) read by sequencing; higher = stronger binding; tyrosines were phosphorylated by kinases first. The settings on record: peptide library: pTyr-Var.
In the case of B1, the enrichment score was inactive: 0.917.

Turning to B2, the enrichment score is inactive: 0.824.

Consider B3, for which the enrichment score is inactive: 1.01.

With B4, the enrichment score was inactive: 0.984.

Turning to B5, the enrichment score is inactive: 0.62.

With B6, the enrichment score is inactive: 0.579.

In the case of B7, the enrichment score is inactive: 0.83.

Consider B8, for which the enrichment score is inactive: 0.784.

With B9, the enrichment score is inactive: 2.23.

On to B10, for which the enrichment score is inactive: 0.53.

In the case of B11, the enrichment score is inactive: 0.742.

With B12, the enrichment score is inactive: 0.291.

In the case of B13, the enrichment score is inactive: 0.758.

As for B14, the enrichment score is inactive: 0.632.

For the molecule B15, the enrichment score is inactive: 2.75.

As to B16, the enrichment score is inactive: 0.728.

With B17, the enrichment score is inactive: 0.836.

For B18, the enrichment score was inactive: 0.534.

Take B19: the enrichment score was inactive: 1.13.

Another experiment deals with SHP2 C-SH2 domain wild-type. The experiment is described as above. The settings on record: peptide library: pTyr-Var.
Regarding B1, the enrichment score is inactive: 1.09.

For B2, the enrichment score was inactive: 1.2.

Regarding B3, the enrichment score was inactive: 0.931.

For B4, the enrichment score is inactive: 0.887.

Regarding B5, the enrichment score is inactive: 0.675.

For B6, the enrichment score is inactive: 0.577.

As to B7, the enrichment score was inactive: 1.2.

As to B8, the enrichment score was inactive: 0.65.

For B9, the enrichment score was inactive: 2.16.

On to B10, for which the enrichment score was inactive: 0.486.

Regarding B11, the enrichment score was inactive: 0.733.

In the case of B12, the enrichment score was inactive: 0.633.

For the molecule B13, the enrichment score is inactive: 0.979.

With B14, the enrichment score was inactive: 0.742.

Consider B15, for which the enrichment score was inactive: 2.27.

With B16, the enrichment score was inactive: 0.881.

Consider B17, for which the enrichment score was inactive: 0.677.

Turning to B18, the enrichment score was inactive: 0.443.

For the molecule B19, the enrichment score was inactive: 1.14.

Another experiment concerns the target SHP2 N-SH2 domain L43F. The description is as above. The note with it: peptide library: pTyr-Var.
Take B1: the enrichment score was inactive: 0.863.

Consider B2, for which the enrichment score is inactive: 0.707.

For the molecule B3, the enrichment score was inactive: 0.992.

For B4, the enrichment score is inactive: 0.568.

Turning to B5, the enrichment score was inactive: 0.485.

Consider B6, for which the enrichment score was inactive: 0.565.

As to B7, the enrichment score was inactive: 1.15.

With B8, the enrichment score is inactive: 0.722.

In the case of B9, the enrichment score is inactive: 2.16.

As for B10, the enrichment score was inactive: 0.506.

In the case of B11, the enrichment score is inactive: 0.652.

Regarding B12, the enrichment score is inactive: 0.475.

As to B13, the enrichment score is inactive: 0.663.

B14: the enrichment score is inactive: 0.685.

For the molecule B15, the enrichment score was inactive: 2.31.

For the molecule B16, the enrichment score was inactive: 0.652.

With B17, the enrichment score was inactive: 0.753.

As for B18, the enrichment score was inactive: 0.381.

With B19, the enrichment score is inactive: 1.13.

Another experiment has as its target SHP2 N-SH2 domain T42A. The description is as above. The note with it: peptide library: pTyr-Var.
For the molecule B1, the enrichment score was inactive: 0.725.

On to B2, for which the enrichment score was inactive: 0.661.

On to B3, for which the enrichment score was inactive: 0.92.

As for B4, the enrichment score is inactive: 1.24.

As for B5, the enrichment score is inactive: 0.478.

For B6, the enrichment score is inactive: 0.575.

Take B7: the enrichment score is inactive: 1.01.

For the molecule B8, the enrichment score is inactive: 0.5.

In the case of B9, the enrichment score is inactive: 1.83.

Regarding B10, the enrichment score is inactive: 0.597.

For B11, the enrichment score is inactive: 0.659.

For B12, the enrichment score was inactive: 0.632.

For B13, the enrichment score was inactive: 0.666.

As for B14, the enrichment score was inactive: 0.422.

As for B15, the enrichment score was inactive: 2.36.

Consider B16, for which the enrichment score was inactive: 0.684.

For B17, the enrichment score was inactive: 0.681.

As to B18, the enrichment score is inactive: 0.74.

As for B19, the enrichment score was inactive: 0.991.

The target of another experiment is SHP2 N-SH2 domain T52S. Described as above. The note with it: peptide library: pTyr-Var.
Turning to B1, the enrichment score was inactive: 0.837.

Regarding B2, the enrichment score was inactive: 0.561.

For B3, the enrichment score was inactive: 1.08.

As to B4, the enrichment score was inactive: 0.914.

On to B5, for which the enrichment score was inactive: 0.759.

For the molecule B6, the enrichment score is inactive: 0.613.

For the molecule B7, the enrichment score is inactive: 0.805.

B8: the enrichment score is inactive: 0.547.

Take B9: the enrichment score is inactive: 1.86.

For the molecule B10, the enrichment score is inactive: 0.343.

For B11, the enrichment score was inactive: 0.701.

Take B12: the enrichment score was inactive: 0.45.

In the case of B13, the enrichment score is inactive: 0.73.

Regarding B14, the enrichment score is inactive: 0.534.

In the case of B15, the enrichment score was inactive: 2.8.

With B16, the enrichment score is inactive: 0.463.

Take B17: the enrichment score is inactive: 0.632.

For B18, the enrichment score was inactive: 0.449.

Regarding B19, the enrichment score is inactive: 0.923.

A further experiment deals with SHP2 N-SH2 domain wild-type. Described as above. The note with it: peptide library: pTyr-Var.
For B1, the enrichment score is inactive: 1.15.

Consider B2, for which the enrichment score is inactive: 1.01.

Turning to B3, the enrichment score is inactive: 0.928.

Take B4: the enrichment score is inactive: 1.31.

For B5, the enrichment score was inactive: 0.535.

As for B6, the enrichment score is inactive: 0.649.

Take B7: the enrichment score is inactive: 1.12.

B8: the enrichment score was inactive: 0.649.

Consider B9, for which the enrichment score is inactive: 1.84.

Take B10: the enrichment score was inactive: 0.588.

On to B11, for which the enrichment score was inactive: 0.803.

For the molecule B12, the enrichment score was inactive: 0.689.

Turning to B13, the enrichment score was inactive: 1.01.

Turning to B14, the enrichment score was inactive: 0.731.

Turning to B15, the enrichment score is inactive: 2.27.

B16: the enrichment score is inactive: 0.761.

B17: the enrichment score is inactive: 0.7.

As for B18, the enrichment score is inactive: 0.86.

For B19, the enrichment score was inactive: 1.31.
